Laboratory results: patent US20240076343A1

Legend:
[1] = target: intermediate affinity hIL-2 receptor complex (IL-2Rβγ) on TF1+IL-2Rβ cells (human) (UniProt P14784); assay: cell-based or functional assay
[2] = target: high-affinity hIL-2 receptor (IL-2Rαβγ) on NK-92 cells (human) (UniProt P01589); assay: cell-based or functional assay
Sequence of UniProt P01589 (P01589 22-272, chain 1 of 3): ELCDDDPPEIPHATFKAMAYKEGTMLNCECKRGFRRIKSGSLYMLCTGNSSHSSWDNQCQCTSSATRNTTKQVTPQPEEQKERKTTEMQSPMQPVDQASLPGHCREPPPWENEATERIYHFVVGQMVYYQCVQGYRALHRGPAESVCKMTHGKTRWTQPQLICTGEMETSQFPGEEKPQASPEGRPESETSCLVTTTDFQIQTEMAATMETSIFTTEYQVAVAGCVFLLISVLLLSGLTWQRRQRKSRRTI
Sequence of UniProt P01589 (chain, as listed by the source, chain 2 of 3): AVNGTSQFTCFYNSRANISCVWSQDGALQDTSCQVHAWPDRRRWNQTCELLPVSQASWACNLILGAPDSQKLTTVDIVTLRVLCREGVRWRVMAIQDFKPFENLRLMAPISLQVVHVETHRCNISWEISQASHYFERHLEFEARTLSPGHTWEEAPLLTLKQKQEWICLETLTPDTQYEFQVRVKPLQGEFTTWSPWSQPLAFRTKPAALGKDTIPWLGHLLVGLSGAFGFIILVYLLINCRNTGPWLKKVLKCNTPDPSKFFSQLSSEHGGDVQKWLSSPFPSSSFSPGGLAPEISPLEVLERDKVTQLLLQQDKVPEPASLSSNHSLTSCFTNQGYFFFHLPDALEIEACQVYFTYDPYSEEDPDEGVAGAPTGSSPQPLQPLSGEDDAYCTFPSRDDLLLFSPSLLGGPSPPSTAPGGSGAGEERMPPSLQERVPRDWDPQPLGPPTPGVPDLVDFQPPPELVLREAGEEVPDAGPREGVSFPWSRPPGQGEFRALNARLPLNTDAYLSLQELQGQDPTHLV
Sequence of UniProt P01589 (chain, as listed by the source, chain 3 of 3): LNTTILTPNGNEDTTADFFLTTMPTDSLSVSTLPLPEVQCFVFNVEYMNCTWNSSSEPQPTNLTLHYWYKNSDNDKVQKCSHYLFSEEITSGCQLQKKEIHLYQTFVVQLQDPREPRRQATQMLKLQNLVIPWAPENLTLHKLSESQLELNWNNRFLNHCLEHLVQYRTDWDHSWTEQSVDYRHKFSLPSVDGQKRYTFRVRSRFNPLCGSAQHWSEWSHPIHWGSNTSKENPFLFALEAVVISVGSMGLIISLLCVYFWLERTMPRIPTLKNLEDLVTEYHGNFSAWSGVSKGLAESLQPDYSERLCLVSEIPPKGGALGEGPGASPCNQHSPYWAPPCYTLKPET

Sequence of UniProt P14784 (P14784 27-551, chain 1 of 2): as the sequence (chain, as listed by the source, chain 2 of 3) above
Sequence of UniProt P14784 (chain, as listed by the source, chain 2 of 2): as the sequence (chain, as listed by the source, chain 3 of 3) above

Fold change from hIL-2 (TF1 + IL-2Rβ) [1] [fold]	Fold change from hIL-2 (NK-92) [2] [fold]	Binder
3	14	1H3-hIgG1-L6-hIL-2 (L72H/D20A) (protein) heavy: EVQLVESGGGLVQPGRSLKLSCAVSGFTFSDYAMAWVRQAPKKGLEWVATISYDGSRTYYRDSVKGRFTISRDNAKITLYLQMDSLRSEDTATYYCARHGSGYFDYWGQGVMVTVSS[not shown - about 450 residues with a human IgG1 Fc and changes] light: DTVLTQSPALAVSPGERVTISCRASESVRTGVHWYQQKPGQQPKLLIYGASNLESGVPARFSGSGSGTDFTLTIDPVEADDTATYFCQQSWNDPFTFGSGTKLEIKRTVAAPSVFIFPPSDEQLKSGTASVVCLLNNFYPREAKVQWKVDNALQSGNSQESVTEQDSKDSTYSLSSTLTLSKADYEKHKVYACEVTHQGLSSPVTKSFNRGEC
5	14	1H3-hIgG1-L6-hIL-2 (L72H/I92D) (protein) heavy: EVQLVESGGGLVQPGRSLKLSCAVSGFTFSDYAMAWVRQAPKKGLEWVATISYDGSRTYYRDSVKGRFTISRDNAKITLYLQMDSLRSEDTATYYCARHGSGYFDYWGQGVMVTVSS[not shown - about 450 residues with a human IgG1 Fc and changes] light: DTVLTQSPALAVSPGERVTISCRASESVRTGVHWYQQKPGQQPKLLIYGASNLESGVPARFSGSGSGTDFTLTIDPVEADDTATYFCQQSWNDPFTFGSGTKLEIKRTVAAPSVFIFPPSDEQLKSGTASVVCLLNNFYPREAKVQWKVDNALQSGNSQESVTEQDSKDSTYSLSSTLTLSKADYEKHKVYACEVTHQGLSSPVTKSFNRGEC
5	12	1H3-hIgG1-L6-hIL-2 (F42D/I92D) (protein) heavy: EVQLVESGGGLVQPGRSLKLSCAVSGFTFSDYAMAWVRQAPKKGLEWVATISYDGSRTYYRDSVKGRFTISRDNAKITLYLQMDSLRSEDTATYYCARHGSGYFDYWGQGVMVTVSS[not shown - about 450 residues with a human IgG1 Fc and changes] light: DTVLTQSPALAVSPGERVTISCRASESVRTGVHWYQQKPGQQPKLLIYGASNLESGVPARFSGSGSGTDFTLTIDPVEADDTATYFCQQSWNDPFTFGSGTKLEIKRTVAAPSVFIFPPSDEQLKSGTASVVCLLNNFYPREAKVQWKVDNALQSGNSQESVTEQDSKDSTYSLSSTLTLSKADYEKHKVYACEVTHQGLSSPVTKSFNRGEC
4	13	1H3-hIgG1-L6-hIL-2 (R38A/I92D) (protein) heavy: EVQLVESGGGLVQPGRSLKLSCAVSGFTFSDYAMAWVRQAPKKGLEWVATISYDGSRTYYRDSVKGRFTISRDNAKITLYLQMDSLRSEDTATYYCARHGSGYFDYWGQGVMVTVSS[not shown - about 450 residues with a human IgG1 Fc and changes] light: DTVLTQSPALAVSPGERVTISCRASESVRTGVHWYQQKPGQQPKLLIYGASNLESGVPARFSGSGSGTDFTLTIDPVEADDTATYFCQQSWNDPFTFGSGTKLEIKRTVAAPSVFIFPPSDEQLKSGTASVVCLLNNFYPREAKVQWKVDNALQSGNSQESVTEQDSKDSTYSLSSTLTLSKADYEKHKVYACEVTHQGLSSPVTKSFNRGEC
5	14	1H3-hIgG1-L6-hIL-2 (L72R/I92D) (protein) heavy: EVQLVESGGGLVQPGRSLKLSCAVSGFTFSDYAMAWVRQAPKKGLEWVATISYDGSRTYYRDSVKGRFTISRDNAKITLYLQMDSLRSEDTATYYCARHGSGYFDYWGQGVMVTVSS[not shown - about 450 residues with a human IgG1 Fc and changes] light: DTVLTQSPALAVSPGERVTISCRASESVRTGVHWYQQKPGQQPKLLIYGASNLESGVPARFSGSGSGTDFTLTIDPVEADDTATYFCQQSWNDPFTFGSGTKLEIKRTVAAPSVFIFPPSDEQLKSGTASVVCLLNNFYPREAKVQWKVDNALQSGNSQESVTEQDSKDSTYSLSSTLTLSKADYEKHKVYACEVTHQGLSSPVTKSFNRGEC
3	13	1H3-hIgG1-L6-hIL-2 (E62A/I92D) (protein) heavy: EVQLVESGGGLVQPGRSLKLSCAVSGFTFSDYAMAWVRQAPKKGLEWVATISYDGSRTYYRDSVKGRFTISRDNAKITLYLQMDSLRSEDTATYYCARHGSGYFDYWGQGVMVTVSS[not shown - about 450 residues with a human IgG1 Fc and changes] light: DTVLTQSPALAVSPGERVTISCRASESVRTGVHWYQQKPGQQPKLLIYGASNLESGVPARFSGSGSGTDFTLTIDPVEADDTATYFCQQSWNDPFTFGSGTKLEIKRTVAAPSVFIFPPSDEQLKSGTASVVCLLNNFYPREAKVQWKVDNALQSGNSQESVTEQDSKDSTYSLSSTLTLSKADYEKHKVYACEVTHQGLSSPVTKSFNRGEC
4	13	1H3-hIgG1-L6-hIL-2 (K43E/I92D) (protein) heavy: EVQLVESGGGLVQPGRSLKLSCAVSGFTFSDYAMAWVRQAPKKGLEWVATISYDGSRTYYRDSVKGRFTISRDNAKITLYLQMDSLRSEDTATYYCARHGSGYFDYWGQGVMVTVSS[not shown - about 450 residues with a human IgG1 Fc and changes] light: DTVLTQSPALAVSPGERVTISCRASESVRTGVHWYQQKPGQQPKLLIYGASNLESGVPARFSGSGSGTDFTLTIDPVEADDTATYFCQQSWNDPFTFGSGTKLEIKRTVAAPSVFIFPPSDEQLKSGTASVVCLLNNFYPREAKVQWKVDNALQSGNSQESVTEQDSKDSTYSLSSTLTLSKADYEKHKVYACEVTHQGLSSPVTKSFNRGEC
5	14	1H3-hIgG1-L6-hIL-2 (L72D/I92D) (protein) heavy: EVQLVESGGGLVQPGRSLKLSCAVSGFTFSDYAMAWVRQAPKKGLEWVATISYDGSRTYYRDSVKGRFTISRDNAKITLYLQMDSLRSEDTATYYCARHGSGYFDYWGQGVMVTVSS[not shown - about 450 residues with a human IgG1 Fc and changes] light: DTVLTQSPALAVSPGERVTISCRASESVRTGVHWYQQKPGQQPKLLIYGASNLESGVPARFSGSGSGTDFTLTIDPVEADDTATYFCQQSWNDPFTFGSGTKLEIKRTVAAPSVFIFPPSDEQLKSGTASVVCLLNNFYPREAKVQWKVDNALQSGNSQESVTEQDSKDSTYSLSSTLTLSKADYEKHKVYACEVTHQGLSSPVTKSFNRGEC
1	16	1H3-hIgG1-L6-hIL-2 (R38E/N88R) (protein) heavy: EVQLVESGGGLVQPGRSLKLSCAVSGFTFSDYAMAWVRQAPKKGLEWVATISYDGSRTYYRDSVKGRFTISRDNAKITLYLQMDSLRSEDTATYYCARHGSGYFDYWGQGVMVTVSS[not shown - about 450 residues with a human IgG1 Fc and changes] light: DTVLTQSPALAVSPGERVTISCRASESVRTGVHWYQQKPGQQPKLLIYGASNLESGVPARFSGSGSGTDFTLTIDPVEADDTATYFCQQSWNDPFTFGSGTKLEIKRTVAAPSVFIFPPSDEQLKSGTASVVCLLNNFYPREAKVQWKVDNALQSGNSQESVTEQDSKDSTYSLSSTLTLSKADYEKHKVYACEVTHQGLSSPVTKSFNRGEC
1	13	1H3-hIgG1-L6-hIL-2 (Y45K/I92D) (protein) heavy: EVQLVESGGGLVQPGRSLKLSCAVSGFTFSDYAMAWVRQAPKKGLEWVATISYDGSRTYYRDSVKGRFTISRDNAKITLYLQMDSLRSEDTATYYCARHGSGYFDYWGQGVMVTVSS[not shown - about 450 residues with a human IgG1 Fc and changes] light: DTVLTQSPALAVSPGERVTISCRASESVRTGVHWYQQKPGQQPKLLIYGASNLESGVPARFSGSGSGTDFTLTIDPVEADDTATYFCQQSWNDPFTFGSGTKLEIKRTVAAPSVFIFPPSDEQLKSGTASVVCLLNNFYPREAKVQWKVDNALQSGNSQESVTEQDSKDSTYSLSSTLTLSKADYEKHKVYACEVTHQGLSSPVTKSFNRGEC
1	13	1H3-hIgG1-L6-hIL-2 (Y45R/I92D) (protein) heavy: EVQLVESGGGLVQPGRSLKLSCAVSGFTFSDYAMAWVRQAPKKGLEWVATISYDGSRTYYRDSVKGRFTISRDNAKITLYLQMDSLRSEDTATYYCARHGSGYFDYWGQGVMVTVSS[not shown - about 450 residues with a human IgG1 Fc and changes] light: DTVLTQSPALAVSPGERVTISCRASESVRTGVHWYQQKPGQQPKLLIYGASNLESGVPARFSGSGSGTDFTLTIDPVEADDTATYFCQQSWNDPFTFGSGTKLEIKRTVAAPSVFIFPPSDEQLKSGTASVVCLLNNFYPREAKVQWKVDNALQSGNSQESVTEQDSKDSTYSLSSTLTLSKADYEKHKVYACEVTHQGLSSPVTKSFNRGEC
5	14	1H3-hIgG1-L6-hIL-2 (E62Y/I92D) (protein) heavy: EVQLVESGGGLVQPGRSLKLSCAVSGFTFSDYAMAWVRQAPKKGLEWVATISYDGSRTYYRDSVKGRFTISRDNAKITLYLQMDSLRSEDTATYYCARHGSGYFDYWGQGVMVTVSS[not shown - about 450 residues with a human IgG1 Fc and changes] light: DTVLTQSPALAVSPGERVTISCRASESVRTGVHWYQQKPGQQPKLLIYGASNLESGVPARFSGSGSGTDFTLTIDPVEADDTATYFCQQSWNDPFTFGSGTKLEIKRTVAAPSVFIFPPSDEQLKSGTASVVCLLNNFYPREAKVQWKVDNALQSGNSQESVTEQDSKDSTYSLSSTLTLSKADYEKHKVYACEVTHQGLSSPVTKSFNRGEC
3	10	1H3-hIgG1-L6-hIL-2 (L72R/D20A) (protein) heavy: EVQLVESGGGLVQPGRSLKLSCAVSGFTFSDYAMAWVRQAPKKGLEWVATISYDGSRTYYRDSVKGRFTISRDNAKITLYLQMDSLRSEDTATYYCARHGSGYFDYWGQGVMVTVSS[not shown - about 450 residues with a human IgG1 Fc and changes] light: DTVLTQSPALAVSPGERVTISCRASESVRTGVHWYQQKPGQQPKLLIYGASNLESGVPARFSGSGSGTDFTLTIDPVEADDTATYFCQQSWNDPFTFGSGTKLEIKRTVAAPSVFIFPPSDEQLKSGTASVVCLLNNFYPREAKVQWKVDNALQSGNSQESVTEQDSKDSTYSLSSTLTLSKADYEKHKVYACEVTHQGLSSPVTKSFNRGEC
